Data taken from the supplement of paper PMC9151546.
Many values rest on one well or one pass, so single values are uncertain.

Key:
CHO-K1 [1] = test: micronucleus frequency (% of nucleated events); higher = more micronuclei (genotoxic)
CHO-K1 [2] = test: relative survival (nuclei to bead ratio vs DMSO control) (% of vehicle control); higher = more surviving cells
Protocol: (§1)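 Flow-cytometric in vitro micronucleus assay (Litron MicroFlow) in CHO-K1 cells in 96-well plates, 19 concentrations (4.5-200 µM, n=1 per concentration). Without S9, cells were exposed for 24 h and sampled at 48 h. With Aroclor 1254-induced rat liver S9, cells were exposed for 3-4 h and sampled at 27-28 h. Read-outs are %MN and %hypodiploid nuclei relative to nucleated events, and relative survival as the nuclei-to-bead ratio versus the 1% DMSO vehicle control (x100).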

CHO-K1 [3] = test: hypodiploid nuclei frequency (% of nucleated events); higher = more hypodiploid events (aneugenic)
Protocol: as §1
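For hypodiploid nuclei frequency (% of nucleated events) in this document: hypodiploid nuclei gated on a flow cytometer with 488 nm excitation after SYTOX Green staining, cultures at 37 °C, positive controls vinblastine without S9 and cyclophosphamide with S9.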
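For micronucleus frequency (% of nucleated events) in this document: cells lysed with nuclei stained by SYTOX Green, then micronucleus-gated events counted against nucleated events by flow cytometry with 488 nm excitation.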
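For relative survival (nuclei to bead ratio vs DMSO control) in this document: Lysed-cell nuclei stained with SYTOX Green and counted against counting beads by flow cytometry at 488 nm excitation, with vinblastine (no S9) and cyclophosphamide (plus S9) as positive controls.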

COC(=O)CCCCC(=O)OC [Dimethyl adipate]
Conditions	hypodiploid nuclei frequency, CHO-K1 [3] [%]	micronucleus frequency, CHO-K1 [1] [%]	relative survival, CHO-K1 [2]
concentration: 4.5 (µM), S9 metabolic activation: with S9, exposure time: 3-4 hours	0.28	1.24	89.7
concentration: 4.5 (µM), S9 metabolic activation: without S9, exposure time: 24 hours	0.84	1.86	135
concentration: 5.63 (µM), S9 metabolic activation: with S9, exposure time: 3-4 hours	0.24	1.18	108
concentration: 5.63 (µM), S9 metabolic activation: without S9, exposure time: 24 hours	0.64	2.16	139
concentration: 7.04 (µM), S9 metabolic activation: with S9, exposure time: 3-4 hours	0.3	1	101
concentration: 7.04 (µM), S9 metabolic activation: without S9, exposure time: 24 hours	0.46	1.26	137
concentration: 8.8 (µM), S9 metabolic activation: with S9, exposure time: 3-4 hours	0.22	1.12	105
concentration: 8.8 (µM), S9 metabolic activation: without S9, exposure time: 24 hours	0.64	2.84	153
concentration: 11 (µM), S9 metabolic activation: with S9, exposure time: 3-4 hours	0.3	1.42	112
concentration: 11 (µM), S9 metabolic activation: without S9, exposure time: 24 hours	0.48	2.5	157
concentration: 13.7 (µM), S9 metabolic activation: with S9, exposure time: 3-4 hours	0.16	0.78	97
concentration: 13.7 (µM), S9 metabolic activation: without S9, exposure time: 24 hours	0.6	2.26	113
concentration: 17.2 (µM), S9 metabolic activation: with S9, exposure time: 3-4 hours	0.2	0.98	107
concentration: 17.2 (µM), S9 metabolic activation: without S9, exposure time: 24 hours	0.64	2.5	135
concentration: 21.5 (µM), S9 metabolic activation: with S9, exposure time: 3-4 hours	0.16	1.08	80.7
concentration: 21.5 (µM), S9 metabolic activation: without S9, exposure time: 24 hours	0.8	2.52	111
concentration: 26.8 (µM), S9 metabolic activation: with S9, exposure time: 3-4 hours	0.22	1.16	150
concentration: 26.8 (µM), S9 metabolic activation: without S9, exposure time: 24 hours	0.74	3.34	97.8
concentration: 33.6 (µM), S9 metabolic activation: with S9, exposure time: 3-4 hours	0.14	1.12	121
concentration: 33.6 (µM), S9 metabolic activation: without S9, exposure time: 24 hours	0.72	2.06	107
concentration: 41.9 (µM), S9 metabolic activation: with S9, exposure time: 3-4 hours	0.22	1.3	87.5
concentration: 41.9 (µM), S9 metabolic activation: without S9, exposure time: 24 hours	0.62	1.76	106
concentration: 52.4 (µM), S9 metabolic activation: with S9, exposure time: 3-4 hours	0.2	1.76	97.2
concentration: 52.4 (µM), S9 metabolic activation: without S9, exposure time: 24 hours	0.46	1.44	86.2
concentration: 65.5 (µM), S9 metabolic activation: with S9, exposure time: 3-4 hours	0.18	1.62	114
concentration: 65.5 (µM), S9 metabolic activation: without S9, exposure time: 24 hours	1.2	1.58	102
concentration: 81.9 (µM), S9 metabolic activation: with S9, exposure time: 3-4 hours	0.3	1.72	124
concentration: 81.9 (µM), S9 metabolic activation: without S9, exposure time: 24 hours	0.84	2.16	92.7
concentration: 102 (µM), S9 metabolic activation: with S9, exposure time: 3-4 hours	0.16	1.78	110
concentration: 102 (µM), S9 metabolic activation: without S9, exposure time: 24 hours	0.86	1.84	107
concentration: 128 (µM), S9 metabolic activation: with S9, exposure time: 3-4 hours	0.14	1.22	82.2
concentration: 128 (µM), S9 metabolic activation: without S9, exposure time: 24 hours	1.22	2.46	73.6
concentration: 160 (µM), S9 metabolic activation: with S9, exposure time: 3-4 hours	0.18	1.76	103
concentration: 160 (µM), S9 metabolic activation: without S9, exposure time: 24 hours	1.1	3.8	101
concentration: 200 (µM), S9 metabolic activation: with S9, exposure time: 3-4 hours	0.36	2.5	90.3
concentration: 200 (µM), S9 metabolic activation: without S9, exposure time: 24 hours	1.5	3.36	78.5
